# Results from patent publication US20080280910A1, “PHTHALAZINONE DERIVATIVES” (priority 2007, published 2008).
# Molecular target: Mammalian PARP, isolated from Hela cell nuclear extract (Homo sapiens, UniProt P09874)
# Assay: PARP inhibition assay (FlashPlate, 3H-NAD incorporation) to determine IC50
# Assay type: biochemical
# Conditions: mean IC50
# Description: In order to assess the inhibitory action of the compounds, the following assay was used to determine IC50 values (Dillon, et al., JBS., 8(3), 347-352 (2003)).
# All compounds were diluted in DMSO and gave final assay concentrations of between 10 and 0.01 μM, with the DMSO being at a final concentration of 1% per well. The total assay volume per well was 40 μL.
# After 10 minutes incubation at 30° C. the reactions were initiated by the addition of a 10 μl reaction mixture, containing NAD (5 μM), ^3H-NAD and 30mer double stranded DNA-oligos. Designated positive and negative reaction wells were done in combination with compound wells (unknowns) in order to calculate % enzyme activities. The plates were then shaken for 2 minutes and incubated at 30° C. for 45 minutes.
# Following the incubation, the reactions were quenched by the addition of 50 μl 30% acetic acid to each well. The plates were then shaken for 1 hour at room temperature.
# The plates were transferred to a TopCount NXT (TRADE MARK) (Packard, UK) for scintillation counting. Values recorded are counts per minute (cpm) following a 30 second counting of each well.
# The % enzyme activity for each compound is then calculated using the following equation: […]
# IC50 values (the concentration at which 50% of the enzyme activity is inhibited) were calculated, which are determined over a range of different concentrations, normally from 10 μM down to 0.001 μM. Such IC50 values are used as comparative values to identify increased compound potencies.
row,IC50,Structure (SMILES)
1,0.353 µM,CN(C)CCNC(=O)c1cccc(-c2cc(Cc3n[nH]c(=O)c4ccccc34)ccc2F)c1 [Compound 124]
2,1.33 µM,O=C(c1cccc(-c2cncc(Cc3n[nH]c(=O)c4ccccc34)c2)c1)N1CCCC1 [Compound 114]
3,0.367 µM,O=C(CC1CCCO1)Nc1ccc(-c2cc(Cc3n[nH]c(=O)c4ccccc34)ccn2)cc1 (stereo not shown) [Compound 254]
4,0.169 µM,CN(C)c1cccc(C(=O)Nc2ccc(-c3cc(Cc4n[nH]c(=O)c5ccccc45)ccc3F)cc2)c1 [Compound 195]
5,0.021 µM,Cn1nccc1C(=O)Nc1cccc(-c2cc(Cc3n[nH]c(=O)c4ccccc34)ccc2F)c1 [Compound 133]
6,0.029 µM,O=C(CCc1ccccc1)Nc1cccc(-c2cc(Cc3n[nH]c(=O)c4ccccc34)ccc2F)c1 [Compound 141]
7,0.031 µM,O=C(Cn1ccc2ccccc21)Nc1cccc(-c2cc(Cc3n[nH]c(=O)c4ccccc34)ccc2F)c1 [Compound 145]
8,0.624 µM,O=c1[nH]nc(Cc2ccc(-c3cccc(O)c3)cc2)c2ccccc12 [Compound 167]
9,0.003 µM,O=c1[nH]nc(Cc2ccc(F)c(-c3ccc(NS(=O)(=O)CC4CCOC4)cc3)c2)c2ccccc12 (stereo not shown) [Compound 243]
10,0.0026 µM,O=c1[nH]nc(Cc2ccc(F)c(-c3ccc(NS(=O)(=O)CC4CCOC4)cc3)c2)c2c1CCCC2 (stereo not shown) [Compound 259]
11,0.261 µM,COC(=O)c1ccc(-c2cccc(Cc3n[nH]c(=O)c4ccccc34)c2)cc1 [Compound 10]
12,0.117 µM,CC(Oc1ccccc1)C(=O)Nc1cccc(-c2cc(Cc3n[nH]c(=O)c4ccccc34)ccc2F)c1 (stereo not shown) [Compound 143]
13,0.646 µM,"O=c1[nH]nc(Cc2csc(-c3ccccc3)n2)c2ccccc12 [Compound 229, 4-(2-Phenyl-thiazol-4-ylmethyl)-2H-phthalazin-1-one]"
14,0.279 µM,N#Cc1cccc(-c2cc(Cc3n[nH]c(=O)c4ccccc34)ccc2F)c1 [Compound 55]
15,0.991 µM,CC(=O)N1CCN(C(=O)c2ccc(-c3cc(Cc4n[nH]c(=O)c5ccccc45)ccc3F)cc2)CC1 [Compound 222]
16,0.736 µM,CN(C)CC(=O)Nc1ccc(-c2cc(Cc3n[nH]c(=O)c4ccccc34)ccc2F)cc1 [Compound 176]

row,IC50,Structure (SMILES)
1,0.123 µM,O=c1[nH]nc(Cc2ccc(F)c(-c3cccc(NS(=O)(=O)c4ccc(Cl)s4)c3)c2)c2ccccc12 [Compound 158]
2,0.02 µM,COc1ccc(S(=O)(=O)Nc2ccc(-c3cc(Cc4n[nH]c(=O)c5ccccc45)ccc3F)cc2)cc1 [Compound 203]
3,0.029 µM,O=C(Nc1cccc(-c2cc(Cc3n[nH]c(=O)c4ccccc34)ccc2F)c1)c1cccs1 [Compound 135]
4,0.023 µM,N#Cc1cccc(NC(=O)Nc2cccc(-c3cc(Cc4n[nH]c(=O)c5ccccc45)ccc3F)c2)c1 [Compound 161]
5,0.041 µM,O=c1[nH]nc(Cc2ccc(F)c(-c3ccc(NS(=O)(=O)c4ccc(Cl)cc4)cc3)c2)c2ccccc12 [Compound 204]
6,0.014 µM,O=c1[nH]nc(Cc2ccc(F)c(-c3ccc(NS(=O)(=O)c4cccs4)cc3)c2)c2ccccc12 [Compound 212]
7,0.057 µM,O=c1[nH]nc(Cc2ccc(F)c(-c3ccc(CN4CCN(c5ccccc5)CC4)o3)c2)c2ccccc12 [Compound 231]
8,0.027 µM,Cc1noc(C)c1S(=O)(=O)Nc1cccc(-c2cc(Cc3n[nH]c(=O)c4ccccc34)ccc2F)c1 [Compound 149]
9,0.0026 µM,O=c1[nH]nc(Cc2ccc(F)c(-c3ccc(NS(=O)(=O)CC4CCCO4)cc3)c2)c2c1CCCC2 (stereo not shown) [Compound 258]
10,0.085 µM,O=C(CCc1ccccc1)Nc1ccc(-c2cc(Cc3n[nH]c(=O)c4ccccc34)ccc2F)cc1 [Compound 192]
11,0.0077 µM,O=c1[nH]nc(Cc2ccc(F)c(-c3ccc(NS(=O)(=O)CC4CCCC4)cc3)c2)c2c1CCCC2 [Compound 262]
12,0.007 µM,O=C(Cc1cccnc1)Nc1cccc(-c2cc(Cc3n[nH]c(=O)c4ccccc34)ccc2F)c1 [Compound 136]
13,0.083 µM,O=c1[nH]nc(Cc2cncc(-c3ccco3)c2)c2ccccc12 [Compound 116]
14,1.19 µM,CN1CCN(C(=O)c2ccc(-c3cc(Cc4n[nH]c(=O)c5ccccc45)ccc3F)cc2)CC1 [Compound 219]
15,0.003 µM,O=c1[nH]nc(Cc2ccc(F)c(-c3ccc(NS(=O)(=O)CC4CCOCC4)cc3)c2)c2ccccc12 [Compound 244]
16,0.3 µM,O=c1[nH]nc(Cc2ccc(F)c(-c3ccc4[nH]ccc4c3)c2)c2ccccc12 [Compound 61]

# The next lines start with the compound.
row,Structure (SMILES),IC50
1,CC(=O)Nc1ccc(-c2cccc(Cc3n[nH]c(=O)c4ccccc34)c2)cc1 [Compound 43],0.065 µM
2,O=C(Cc1cccs1)Nc1ccc(-c2cc(Cc3n[nH]c(=O)c4ccccc34)ccc2F)cc1 [Compound 188],0.031 µM
3,O=C(Nc1ccc(-c2cc(Cc3n[nH]c(=O)c4ccccc34)ccc2F)cc1)NC1CCCCC1 [Compound 198],0.036 µM
4,O=C(Nc1ccc(-c2cc(Cc3n[nH]c(=O)c4ccccc34)ccc2F)cc1)c1ccco1 [Compound 177],0.162 µM
5,O=C(Cc1ccccc1)Nc1ccc(-c2cc(Cc3n[nH]c(=O)c4ccccc34)ccn2)cc1 [Compound 253],0.177 µM
6,O=C(Nc1cccc(-c2cc(Cc3n[nH]c(=O)c4ccccc34)ccc2F)c1)c1cnccn1 [Compound 131],0.104 µM
7,CC(=O)Nc1ccc(-c2cc(Cc3n[nH]c(=O)c4ccccc34)ccc2F)cc1 [Compound 52],0.075 µM
8,CCN1CCN(C(=O)c2ccc(-c3cc(Cc4n[nH]c(=O)c5ccccc45)ccc3F)cc2)CC1 [Compound 215],0.765 µM
9,O=c1[nH]nc(Cc2cncc(-c3ccc4c(c3)OCCO4)c2)c2ccccc12 [Compound 110],0.481 µM
10,O=c1[nH]nc(Cc2ccc(F)c(-c3ccc(CN4CCCCC4)o3)c2)c2ccccc12 [Compound 237],0.043 µM
11,O=C(Cc1ccccc1)Nc1ccc(-c2cc(Cc3n[nH]c(=O)c4c3CCCC4)ccc2F)cc1 [Compound 266],0.015 µM
12,O=C(Nc1cccc(-c2cc(Cc3n[nH]c(=O)c4ccccc34)ccc2F)c1)c1ccc(F)cc1 [Compound 137],0.042 µM
13,CCS(=O)(=O)Nc1cccc(-c2cc(Cc3n[nH]c(=O)c4ccccc34)ccc2F)c1 [Compound 153],0.014 µM
14,O=C(Nc1ccc(-c2cc(Cc3n[nH]c(=O)c4ccccc34)ccc2F)cc1)Nc1ccccc1F [Compound 197],0.12 µM
15,CN(C)CCN1CCN(Cc2ccc(-c3cc(Cc4n[nH]c(=O)c5ccccc45)ccc3F)o2)CC1 [Compound 240],0.03 µM
16,Cc1cc(C(=O)Nc2ccc(-c3cc(Cc4n[nH]c(=O)c5ccccc45)ccc3F)cc2)n(C)n1 [Compound 187],0.285 µM
17,O=c1[nH]nc(Cc2ccc(-c3ccco3)cc2)c2ccccc12 [Compound 164],0.393 µM
18,CSc1cccc(-c2cc(Cc3n[nH]c(=O)c4ccccc34)ccc2F)c1 [Compound 78],0.511 µM
19,CN(C)CCN(C)C(=O)c1cccc(-c2cc(Cc3n[nH]c(=O)c4ccccc34)ccc2F)c1 [Compound 126],0.805 µM
20,O=c1[nH]nc(Cc2ccc(F)c(-c3ccccc3Cl)c2)c2ccccc12 [Compound 56],0.218 µM
21,CN(C)CC(=O)Nc1cccc(-c2cc(Cc3n[nH]c(=O)c4ccccc34)ccc2F)c1 [Compound 128],0.079 µM
22,O=C(Nc1ccc(-c2cc(Cc3n[nH]c(=O)c4ccccc34)ccc2F)cc1)c1ccncc1 [Compound 180],0.088 µM
23,O=C(c1ccc(-c2cc(Cc3n[nH]c(=O)c4ccccc34)ccc2F)cc1)N1CCCN(CCO)CC1 [Compound 221],1.6 µM
